Data from the supplement of paper PMC11417369.
± gives the standard deviation of the averaged measurements. Some of the results follow.

Test system: PfAP2-LT AP2 domain (GST-tagged)
Assay: gcPBM binding intensity (ln(normalized median fluorescence intensity)); higher = stronger DNA binding
Summary of the method: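 After 1 h on an Agilent 4 × 180k array of primer-extended double-stranded 36-bp intergenic genomic probes and negative controls, bound GST-tagged P. falciparum DNA-binding domains were detected with Alexa488 anti-GST antibody and scanned at 488 nm. The domains had been expressed in E. coli, and binding took place in 1× PBS with 1% milk, 0.2 mg/ml BSA, 0.5% salmon testes DNA and 0.03% Triton X-100. Binding intensity is the highest Masliner-normalised natural-log median intensity across replicate spots of either probe orientation.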

Point of comparison: “AAAAATAAAATAATATGTACATATATAATATATATA [XGTACX_site4786]”, “gcPBM binding intensity (ln)” value 8.76 ± 0.55. Against it:
- ATAATATATTTTTGAACACACAATATAGATTTATAT [CACACA_site7857] — within error, 8.66 ± 0.43
- TATTCGAAAATTATTCAAATTATCTAACATATTATT [TGCATGCA_negctrl_site70] — within error, 8.35 ± 0.33
- AATTGGAAACAACCAAAAAAATTAAAGTTGTATCCT [CACACA_negctrl_site565] — within error, 8.53 ± 0.45
- TAATTTTTTAGACACACACACATATAAATATAAATA [CACACA_site6195] — within error, 9.37 ± 0.34
- TATATCTTAATATACACACACACATATATATATATA [CACACA_site4968] — higher, 9.71 ± 0.014
- TAAATGAAAACCATTAGTACTTATACTGATAAATGT [XGTACX_site763] — within error, 8.68 ± 0.42
- TATATAAATATATATACACACAAAAAAAAAAAAAAA [CACACA_site1406] — within error, 8.8 ± 0.45
- TAAATACAAAAATGTACACACATATATATATTTTTA [CACACA_site3503] — within error, 8.93 ± 0.4
- TAAATTTTAATATGCACACAAAATGTTATATTAAAA [CACACA_site4366] — within error, 8.55 ± 0.5
- CGGCACATTATATATACACACATATAAATATATACA [CACACA_site8086] — within error, 9.15 ± 0.41
- TGTTTATTCTTTAAATATTATTCAAATACTACAAGT [CACACA_negctrl_site746] — within error, 8.34 ± 0.54
- AAAAAAAAAAAAAATTGTACATAATAAAAATATGGA [XGTACX_site3189] — within error, 8.55 ± 0.56
- ATACAAGAATTAAACACACACAAAATATAAATTCTT [CACACA_site3005] — within error, 9.34 ± 0.42
- CACAGACACGGACACACACACACACCCATATATATA [CACACA_site4354] — higher, 10.1 ± 0.32
- AGCAACCTGAAAAAATTACTCTTTCTTAAACAAATT [XGTACX_negctrl_site266] — within error, 8.44 ± 0.49
- ACCTGTAAAAATGTTTATATATATATATATATATAT [CACACA_negctrl_site1500] — higher, 9.88 ± 0.3
- TTAAGGATTAAGGTGTGTACATATAAATATTATATA [XGTACX_site7532] — within error, 8.78 ± 0.42
- AATATTAAATGAAAAAGTACAAACAGTCCTATATTA [XGTACX_site1926] — within error, 8.69 ± 0.48
- ATTTATATAAAGAATGTACACACAGAAATGCACCCA [CACACA_site8715] — within error, 9.15 ± 0.35
- CGTATGCACAAATTATGTACTTATATATATATATAT [XGTACX_site2348] — within error, 9.09 ± 0.22
- AAAAAAAAAAAACATACACACAAATAAATACATACA [CACACA_site6073] — within error, 9.23 ± 0.36
- TAAATATATATATGTGTGCACTTCTTCATTTTAATA [GTGCAC_site9537] — within error, 9.07 ± 0.38
- CGGCACATTATATATACACACATATAAATAAATACA [CACACA_site4477] — within error, 9.14 ± 0.46
- TATATATATAAGTGCACACTGAACCAAGAAAATTAT [CACACA_site3008] — within error, 9.2 ± 0.38
- GGATTGATAAGTGGTACACACATATAGATTATAGAT [CACACA_site7367] — within error, 9.11 ± 0.48
- CCATCTAAACACAACTCGAGTTGGATGTGTGAACTT [XGTACX_negctrl_site83] — within error, 8.98 ± 0.37
- ATATATATATATATATGTACATATTTCTCCATTTTT [XGTACX_site2869] — within error, 9.61 ± 0.39
- CATATTTTTATAAATTGTACGTATATTATATATATA [XGTACX_site1816] — within error, 8.59 ± 0.33
- TGCAATTGTAAAGGCGCACACATATATATATATATA [CACACA_site4894] — higher, 10.2 ± 0.13
- GTTTTTTATAATTGTAGTACAAGAAGATATTTTTAT [XGTACX_site5443] — within error, 8.36 ± 0.36
- AAACCGTGGGAGCACACACACACACCGACACATATA [CACACA_site4338] — higher, 10 ± 0.28
- GCATTGTCCATGCGCACACACTACTAGAATAATATG [CACACA_site5932] — within error, 9.28 ± 0.37
- ATATATCAATATAAAAGTACAAACAAAAAATAATCA [XGTACX_site7559] — within error, 8.95 ± 0.42
- GATATATACTCCATCACACACCAAAAAGAAAAAAGA [CACACA_site7242] — within error, 9.11 ± 0.45
- TCCATTTATAAATTAGCATGCAATCTATGTCTGATA [TGCATGCA_site1045] — within error, 8.7 ± 0.33
- ATCAAAAGAAAACACACACACATACAGATATATATA [CACACA_site5974] — higher, 9.88 ± 0.29
- AATTAATGGGTACATACACACATATATACCTACATA [CACACA_site4572] — within error, 9.07 ± 0.33
- TAAATACTAATATGTACACACATATAGATATAGATT [CACACA_site7247] — within error, 8.96 ± 0.38
- GAATAAGATAGATATACACACCATTATAAATATAAA [CACACA_site5392] — within error, 8.99 ± 0.45
- GCTAAAAGTATATGCACACACATATATATGCACATA [CACACA_site1635] — within error, 9.47 ± 0.38
- TTTTGTACTTCATGCGTGCACAGAAATATATTATAT — within error, 8.82 ± 0.36
- TTAAATAGATAAACTAAACACACAAAAAAAAAAAAA [CACACA_site8308] — within error, 8.71 ± 0.47
- TGTGCAAGATTTTTCTGTACATATATATAAATATAT [XGTACX_site1796] — within error, 8.57 ± 0.42
- AAATATTCTTGTTTAATACACACTGTAGTATTATAT [CACACA_site433] — within error, 8.94 ± 0.4
